# Assay results taken from the supplement of paper PMC8728848.
# This is one part of the list.
# Experiments:
# Assay in all cases: glycan array binding signal (z-score within array); higher = stronger binding
# Conditions in all cases: glycan notation: IUPAC condensed, linker removed
# GlcNAc(b1-3)Man = target: GlcNAc(b1-3)Man
# In short: (§1)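 The binding signal is a Z-score computed within each array. Data were drawn from 3228 arrays in the Consortium for Functional Glycomics database, restricted to those with a known protein sequence. Scores were averaged over arrays of the same protein sequence at different concentrations or buffers, and over linkers, and negative values can be taken as non-binding.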
# [1] = target: GlcNAc(b1-3)[GlcNAc(b1-4)][GlcNAc(b1-6)]GlcNAc
# In short: as §1
# [2] = target: GlcNAc(b1-3)[GlcNAc(b1-6)]Gal(b1-4)GlcNAc
# In short: as §1
# [3] = target: GlcNAc(b1-3)[GlcNAc(b1-6)]GalNAc
# In short: as §1
# [4] = target: GlcNAc(b1-4)Gal(b1-4)GlcNAc
# In short: as §1
# GlcNAc(b1-4)GlcNAc = target: GlcNAc(b1-4)GlcNAc
# In short: as §1
# [5] = target: GlcNAc(b1-4)GlcNAc(b1-4)GlcNAc
# In short: as §1
# [6] = target: GlcNAc(b1-4)GlcNAc(b1-4)GlcNAc(b1-4)GlcNAc(b1-4)GlcNAc
# In short: as §1
# [7] = target: GlcNAc(b1-4)GlcNAc(b1-4)GlcNAc(b1-4)GlcNAc(b1-4)GlcNAc(b1-4)GlcNAc
# In short: as §1
# [8] = target: GlcNAc(b1-4)[GlcNAc(b1-6)]GalNAc
# In short: as §1
# [9] = target: GlcNAc(b1-6)Gal(b1-4)GlcNAc
# In short: as §1
# GlcNAc(b1-6)GalNAc = target: GlcNAc(b1-6)GalNAc
# In short: as §1
# [10] = target: GlcNAc6S(b1-3)Gal(b1-4)GlcNAc
# In short: as §1
# Kdn(a2-3)Gal(b1-3)GalNAc = target: Kdn(a2-3)Gal(b1-3)GalNAc
# In short: as §1
# Kdn(a2-3)Gal(b1-3)GlcNAc = target: Kdn(a2-3)Gal(b1-3)GlcNAc
# In short: as §1
# Kdn(a2-3)Gal(b1-4)Glc = target: Kdn(a2-3)Gal(b1-4)Glc
# In short: as §1
# Kdn(a2-3)Gal(b1-4)GlcNAc = target: Kdn(a2-3)Gal(b1-4)GlcNAc
# In short: as §1
# [11] = target: Kdn(a2-3)Gal(b1-4)[Fuc(a1-3)]GlcNAc
# In short: as §1
# Kdn(a2-6)Gal(b1-4)GlcNAc = target: Kdn(a2-6)Gal(b1-4)GlcNAc
# In short: as §1
# [12] = target: Man(a1-2)Man(a1-2)Man(a1-3)Man
# In short: as §1
# [13] = target: Man(a1-2)Man(a1-2)Man(a1-6)[Man(a1-3)]Man
# In short: as §1
# Man(a1-2)Man(a1-3)Man = target: Man(a1-2)Man(a1-3)Man
# In short: as §1
# [14] = target: Man(a1-2)Man(a1-3)[Man(a1-2)Man(a1-6)]Man
# In short: as §1
# [15] = target: Man(a1-2)Man(a1-3)[Man(a1-2)Man(a1-6)]Man(a1-6)[Man(a1-2)Man(a1-2)Man(a1-3)]Man
# In short: as §1
# [16] = target: Man(a1-2)Man(a1-3)[Man(a1-2)Man(a1-6)]Man(a1-6)[Man(a1-2)Man(a1-2)Man(a1-3)]Man(b1-4)GlcNAc(b1-4)GlcNAc
# In short: as §1
# [17] = target: Man(a1-2)Man(a1-3)[Man(a1-6)]Man(a1-6)[Man(a1-2)Man(a1-3)]Man(b1-4)GlcNAc(b1-4)GlcNAc
# In short: as §1
# [18] = target: Man(a1-2)Man(a1-6)[Man(a1-3)]Man(a1-6)[Man(a1-2)Man(a1-2)Man(a1-3)]Man
# In short: as §1
# [19] = target: Man(a1-2)Man(a1-6)[Man(a1-3)]Man(a1-6)[Man(a1-2)Man(a1-2)Man(a1-3)]Man(b1-4)GlcNAc(b1-4)GlcNAc
# In short: as §1
# Man(a1-3)[Man(a1-6)]Man = target: Man(a1-3)[Man(a1-6)]Man
# In short: as §1
# [20] = target: Man(a1-3)[Man(a1-6)]Man(a1-6)[Man(a1-2)Man(a1-3)]Man(b1-4)GlcNAc(b1-4)GlcNAc
# In short: as §1
# [21] = target: Man(a1-3)[Man(a1-6)]Man(a1-6)[Man(a1-3)]Man
# In short: as §1
# [22] = target: Man(a1-3)[Man(a1-6)]Man(a1-6)[Man(a1-3)]Man(b1-4)GlcNAc(b1-4)GlcNAc
# In short: as §1
# [23] = target: Man(a1-3)[Man(a1-6)]Man(b1-4)GlcNAc(b1-4)GlcNAc
# In short: as §1
# [24] = target: Man(a1-3)[Man(a1-6)]Man(b1-4)GlcNAc(b1-4)[Fuc(a1-6)]GlcNAc
# In short: as §1
# Man(a1-6)Man = target: Man(a1-6)Man
# In short: as §1
# Man(b1-4)GlcNAc = target: Man(b1-4)GlcNAc
# In short: as §1
# MurNAc(b1-4)GlcNAc = target: MurNAc(b1-4)GlcNAc
# In short: as §1
# Neu5Ac(a2-3)Gal = target: Neu5Ac(a2-3)Gal
# In short: as §1
binder,measurement,setting,value
GSL-I-B4 (Griffonia simplicifolia) (protein) NFWSDVEDSIIFQGDANTTAGTLQLCKTNQYGTPLQWSAGRALYSDPVQLWDNKTESVASFYTEFTFFLKITGNGPADGLAFFLAPPDSDVKDAGEYLGLFNKSTATQPSKNQVVAVEFDTWTNPNFPEPSYRHIGINVNSIVSVATKRWEDSDIFSGKIATARISYDGSAEILTVVLSYPDGSDYILSHSVDMRQNLPESVRVGISASTGNNQFLTVYILSWRFSSNLQSTSVKAAMEPEITRTVV,glycan array binding signal (z-score),GlcNAc(b1-3)Man,-0.141
same,glycan array binding signal (z-score),[1],-0.144
same,glycan array binding signal (z-score),[2],-0.226
same,glycan array binding signal (z-score),[3],-0.161
same,glycan array binding signal (z-score),[4],-0.208
same,glycan array binding signal (z-score),GlcNAc(b1-4)GlcNAc,-0.066
same,glycan array binding signal (z-score),[5],0.033
same,glycan array binding signal (z-score),[6],-0.032
same,glycan array binding signal (z-score),[7],-0.005
same,glycan array binding signal (z-score),[8],-0.195
same,glycan array binding signal (z-score),[9],-0.146
same,glycan array binding signal (z-score),GlcNAc(b1-6)GalNAc,-0.177
same,glycan array binding signal (z-score),[10],-0.147
same,glycan array binding signal (z-score),Kdn(a2-3)Gal(b1-3)GalNAc,-0.163
same,glycan array binding signal (z-score),Kdn(a2-3)Gal(b1-3)GlcNAc,-0.201
same,glycan array binding signal (z-score),Kdn(a2-3)Gal(b1-4)Glc,-0.131
same,glycan array binding signal (z-score),Kdn(a2-3)Gal(b1-4)GlcNAc,-0.166
same,glycan array binding signal (z-score),[11],-0.145
same,glycan array binding signal (z-score),Kdn(a2-6)Gal(b1-4)GlcNAc,-0.163
same,glycan array binding signal (z-score),[12],-0.124
same,glycan array binding signal (z-score),[13],-0.073
same,glycan array binding signal (z-score),Man(a1-2)Man(a1-3)Man,-0.167
same,glycan array binding signal (z-score),[14],-0.153
same,glycan array binding signal (z-score),[15],-0.158
same,glycan array binding signal (z-score),[16],-0.063
same,glycan array binding signal (z-score),[17],-0.177
same,glycan array binding signal (z-score),[18],-0.17
same,glycan array binding signal (z-score),[19],-0.18
same,glycan array binding signal (z-score),Man(a1-3)[Man(a1-6)]Man,-0.153
same,glycan array binding signal (z-score),[20],0.017
same,glycan array binding signal (z-score),[21],-0.116
same,glycan array binding signal (z-score),[22],-0.159
same,glycan array binding signal (z-score),[23],-0.15
same,glycan array binding signal (z-score),[24],-0.141
same,glycan array binding signal (z-score),Man(a1-6)Man,-0.202
same,glycan array binding signal (z-score),Man(b1-4)GlcNAc,-0.19
same,glycan array binding signal (z-score),MurNAc(b1-4)GlcNAc,-0.182
same,glycan array binding signal (z-score),Neu5Ac(a2-3)Gal,-0.149
